# Paper PMC9911399, “Two distinct binding modes provide the RNA-binding protein RbFox with extraordinary sequence specificity”
# Where a chain is given by its changes, count along the chain named. This is one part of the list.
# T1: RBFOX1 RRM RbFoxmut (Fox-RRM*) (Homo sapiens, UniProt Q9NWB1 109-208, R118D;E147R;N151S;E152T)
# T1 sequence: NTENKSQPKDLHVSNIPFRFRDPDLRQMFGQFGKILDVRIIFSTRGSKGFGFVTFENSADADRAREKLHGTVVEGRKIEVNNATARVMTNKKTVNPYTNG
# B1: ACCUUAG (DNA:RNA)
# RNA: GGGAGACCGGAAUUCAGAUUGUCCACCUUAGUUAAAUCCCGUCGUAGCCACCA
# DNA 1: CAATCTGAATTCCGGTCTCCC
# DNA 2: TGGTGGCTACGACGGGATT
# B2: CUCACUU (DNA:RNA)
# RNA: B1 RNA with A25C, C26U, U28A, U29C, A30U, G31U
# DNA 1: CAATCTGAATTCCGGTCTCCC
# DNA 2: TGGTGGCTACGACGGGATT
# B3: UAGCUAG (DNA:RNA)
# RNA: B1 RNA with A25U, C26A, C27G, U28C
# DNA 1: CAATCTGAATTCCGGTCTCCC
# DNA 2: TGGTGGCTACGACGGGATT
# B4: CGGGUGG (DNA:RNA)
# RNA: B1 RNA with A25C, C26G, C27G, U28G, A30G
# DNA 1: CAATCTGAATTCCGGTCTCCC
# DNA 2: TGGTGGCTACGACGGGATT
# B5: UUAGAGG (DNA:RNA)
# RNA: B1 RNA with A25U, C26U, C27A, U28G, U29A, A30G
# DNA 1: CAATCTGAATTCCGGTCTCCC
# DNA 2: TGGTGGCTACGACGGGATT
# B6: UCAUAUG (DNA:RNA)
# RNA: B1 RNA with A25U, C27A, U29A, A30U
# DNA 1: CAATCTGAATTCCGGTCTCCC
# DNA 2: TGGTGGCTACGACGGGATT
# B7: UGGCGGG (DNA:RNA)
# RNA: B1 RNA with A25U, C26G, C27G, U28C, U29G, A30G
# DNA 1: CAATCTGAATTCCGGTCTCCC
# DNA 2: TGGTGGCTACGACGGGATT
# B8: CGUGCCC (DNA:RNA)
# RNA: GGGAGACCGGAAUUCAGAUUGUCCCGUGCCCUUAAAUCCCGUCGUAGCCACCA
# DNA 1: CAATCTGAATTCCGGTCTCCC
# DNA 2: TGGTGGCTACGACGGGATT
# B9: UACCGAA (DNA:RNA)
# RNA: B1 RNA with A25U, C26A, U28C, U29G, G31A
# DNA 1: CAATCTGAATTCCGGTCTCCC
# DNA 2: TGGTGGCTACGACGGGATT
# B10: AGUUUCA (DNA:RNA)
# RNA: B1 RNA with C26G, C27U, A30C, G31A
# DNA 1: CAATCTGAATTCCGGTCTCCC
# DNA 2: TGGTGGCTACGACGGGATT
# B11: UCACAAC (DNA:RNA)
# RNA: B1 RNA with A25U, C27A, U28C, U29A, G31C
# DNA 1: CAATCTGAATTCCGGTCTCCC
# DNA 2: TGGTGGCTACGACGGGATT
# B12: AAGGCGC (DNA:RNA)
# RNA: B8 RNA with C25A, G26A, U27G, C30G
# DNA 1: CAATCTGAATTCCGGTCTCCC
# DNA 2: TGGTGGCTACGACGGGATT
# B13: UGAAGUA (DNA:RNA)
# RNA: B8 RNA with C25U, U27A, G28A, C29G, C30U, C31A
# DNA 1: CAATCTGAATTCCGGTCTCCC
# DNA 2: TGGTGGCTACGACGGGATT
# B14: GCAGGGG (DNA:RNA)
# RNA: B1 RNA with A25G, C27A, U28G, U29G, A30G
# DNA 1: CAATCTGAATTCCGGTCTCCC
# DNA 2: TGGTGGCTACGACGGGATT
# B15: UUGUUGG (DNA:RNA)
# RNA: B1 RNA with A25U, C26U, C27G, A30G
# DNA 1: CAATCTGAATTCCGGTCTCCC
# DNA 2: TGGTGGCTACGACGGGATT
# B16: UGGUGGA (DNA:RNA)
# RNA: B1 RNA with A25U, C26G, C27G, U29G, A30G, G31A
# DNA 1: CAATCTGAATTCCGGTCTCCC
# DNA 2: TGGTGGCTACGACGGGATT
# B17: UAACGGC (DNA:RNA)
# RNA: B8 RNA with C25U, G26A, U27A, G28C, C29G, C30G
# DNA 1: CAATCTGAATTCCGGTCTCCC
# DNA 2: TGGTGGCTACGACGGGATT
# B18: GGUAGGU (DNA:RNA)
# RNA: B8 RNA with C25G, G28A, C29G, C30G, C31U
# DNA 1: CAATCTGAATTCCGGTCTCCC
# DNA 2: TGGTGGCTACGACGGGATT
# B19: CUGCAAC (DNA:RNA)
# RNA: B8 RNA with G26U, U27G, G28C, C29A, C30A
# DNA 1: CAATCTGAATTCCGGTCTCCC
# DNA 2: TGGTGGCTACGACGGGATT
# B20: AUAUAUU (DNA:RNA)
# RNA: B1 RNA with C26U, C27A, U29A, A30U, G31U
# DNA 1: CAATCTGAATTCCGGTCTCCC
# DNA 2: TGGTGGCTACGACGGGATT
# Target: T1, RBFOX1 RRM RbFoxmut (Fox-RRM*)
# Test: EMSA; HiTS-Eq, 1 nM pool, 10 min; buffer printed only for the single-RNA assays: 10 mM Tris pH 7.5, 150 mM NaCl, 3.4 mM EDTA, 0.001% NP-40, 30 C
# Settings: tags: His6 N-terminal (pET28a); label: 5' 32P
# Method in brief: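 Purified wild-type or mutant RbFox RRM at increasing concentrations was equilibrated with 1 nM of 5′-radiolabelled RNA carrying 7 randomized nucleotides for 10 min in 50 µL. Unbound RNA was separated by 8% native PAGE and sequenced. Relative association constants came from read-count changes of each RNA species compared with the control reaction, normalised to the cognate motif.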
row,Binder,binding signal
1,B1,0.124 KA relative to UGCAUGU
2,B2,0.11 KA relative to UGCAUGU
3,B3,0.1 KA relative to UGCAUGU
4,B4,0.0864 KA relative to UGCAUGU
5,B5,0.0903 KA relative to UGCAUGU
6,B6,0.136 KA relative to UGCAUGU
7,B7,0.142 KA relative to UGCAUGU
8,B8,0.0751 KA relative to UGCAUGU
9,B9,0.0931 KA relative to UGCAUGU
10,B10,0.134 KA relative to UGCAUGU
11,B11,0.0452 KA relative to UGCAUGU
12,B12,0.0876 KA relative to UGCAUGU
13,B13,0.105 KA relative to UGCAUGU
14,B14,0.0734 KA relative to UGCAUGU
15,B15,0.117 KA relative to UGCAUGU
16,B16,0.122 KA relative to UGCAUGU
17,B17,0.0603 KA relative to UGCAUGU
18,B18,0.0873 KA relative to UGCAUGU
19,B19,0.0782 KA relative to UGCAUGU
20,B20,0.119 KA relative to UGCAUGU
